Counter-ions that a name gives are not always drawn. ± gives the standard deviation of the averaged measurements. Many values rest on one well or one pass, so single values are uncertain. Where a SMILES comes first, the peptide text is derived from it. [ ]: non-standard residue; d: D form. The star is where a group is joined. Dolaproine = CO[C@@H]([C@@H]1CCCN1)[C@@H](C)C(=O)O; Dil = CC[C@H](C)[C@H](NC)[C@@H](CC(=O)O)OC; X1 = C[C@@H](N*)[C@@H](O)c1ccccc1; NMeV = CN[C@H](C(=O)O)C(C)C
What was measured:
[1] = test system: SUDHL6 parental; test: estimated IC50 (cell viability); higher = less potent
[2] = test system: SUDHL6 venetoclax-resistant; test: as above
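Note: compound screen comparing venetoclax-resistant SUDHL6, derived by months of escalating venetoclax exposure, with its matched parental line, IC50 from one-site nonlinear dose–response fit, geometric mean for duplicated compounds.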

Compound | estimated IC50 [1] [µM] | estimated IC50 [2] [µM]
CS(=O)(=O)Nc1cc(-c2ccc3ncnc(Nc4ccc(F)c(Cl)c4)c3c2)cnc1Cl [MTX-211] | 0.9 | 0.2
O=C(c1ccccc1O)c1[nH]c(Cl)c(Cl)c1-n1c(C(=O)c2ccccc2O)cc(Cl)c1Cl [Marinopyrrole A (Maritoclax)] | 1.9 | 1.1
COC(=O)Nc1nc2cc(C(=O)c3ccccc3)ccc2[nH]1 [Mebendazole] | 6.32 | 3.77
CN(C)c1ccc2nc3ccc(=[N+](C)C)cc-3sc2c1 [Methylene Blue] | 1.95 | 0.86
Nc1ncccc1-c1nc2ccc(-c3ccccc3)nc2n1-c1ccc(C2(N)CCC2)cc1 [Miransertib (ARQ 092) HCl] | 9.32 | 1.03
O=C1c2c(O)ccc(O)c2C(=O)c2c(NCCNCCO)ccc(NCCNCCO)c21 [Mitoxantrone 2HCl] | 3.08 | 1.19
CCS(=O)(=O)Nc1ccc(Oc2ccc(F)cc2F)c(-c2cn(C)c(=O)c3[nH]ccc23)c1 [Mivebresib(ABBV-075)] | 0.203 | 0.07
CC[C@H](C)[C@@H]([C@@H](CC(=O)N1CCC[C@H]1[C@H](OC)[C@@H](C)C(=O)N[C@H](C)[C@@H](O)c1ccccc1)OC)N(C)C(=O)[C@@H](NC(=O)[C@@H](NC)C(C)C)C(C)C [Monomethyl auristatin E (MMAE)] (H-[NMeV]V[Dil][Dolaproine]-X1) | 0.0041 | 0.0008
CC(C)=CCc1c(-c2ccc(O)cc2O)oc2c3c(cc(O)c2c1=O)OC(C)(C)C=C3 [Morusin] | 3.23 | 1.76
FC(F)(F)c1ccc(/C=C/c2nc(COc3ccc(CCCCn4ccnn4)cc3)co2)cc1 [Mubritinib (TAK 165)] | 0.042 | 0.028
FC(F)(F)c1ccc(/C=C/c2nc(COc3ccc(CCCCn4ccnn4)cc3)co2)cc1 [Mubritinib] | > 10 | 2.87
O=c1cc(-c2ccc([N+](=O)[O-])cc2)nc2c(-c3ccc(Cl)cc3)c(Cc3ccccc3)[nH]n12 [NAV-2729] | 5.91 | 3.86
Cc1c(O)cccc1C(=O)N[C@@H](CSc1ccccc1)[C@H](O)CN1C[C@H]2CCCC[C@H]2C[C@H]1C(=O)NC(C)(C)C [Nelfinavir Mesylate] | > 10 | 2.8
COC(=O)Nc1nc2cc(C(=O)c3cccs3)ccc2[nH]1 [Nocodazole] | 0.521 | 0.194
O=C1C2=C(CCN(Cc3ccccc3)C2)N2CCN=C2N1Cc1ccc(F)cc1F [ONC206] | 0.87 | 0.34
Cc1cc(O)c(-c2ccc([C@@H](C)CN)cc2)c2c1[nH]c(=O)c1sccc12 [OTS514 hydrochloride] | 0.074 | 0.042
Cc1sc2c(c1C)C(c1ccc(Cl)cc1)=N[C@@H](CC(=O)Nc1ccc(O)cc1)c1nnc(C)n1-2 [OTX015] | 1.56 | 0.83
COC1=CC(c2cc3ccccc3[nH]2)=N/C1=C\c1[nH]c(C)cc1C [Obatoclax Mesylate (GX15-070)] | 0.6 | 0.39
C=CC(=O)Nc1cc(Nc2nccc(-c3cn(C)c4ccccc34)n2)c(OC)cc1N(C)CCN(C)C [Osimertinib (AZD9291)] | 7.25 | 3.37
C=CCc1cccc(/C=N/NC(=O)CN2CCN(Cc3ccccc3)CC2)c1O [PAC-1] | 7.2 | 3.9

Compound | estimated IC50 [1] [µM] | estimated IC50 [2] [µM]
O=C(Nc1cccnc1)N1CCC(Cc2cccc(Oc3ccc(C(F)(F)F)cn3)c2)CC1 [PF-3845] | 5.4 | 3.5
O=C(NNc1ccccn1)c1ccccn1 [PFI-90] | 1.17 | 0.527
COc1cc2c(O[C@@H]3O[C@H](CO)[C@@H]4OC(C)(C)O[C@@H]4[C@H]3O)c3c(c(-c4ccc5c(c4)OCO5)c2cc1OC)C(=O)OC3 [PHY34] | 0.0013 | 0.0001
Fc1ccc2[nH]ccc2c1-c1nc(N2CCOCC2)c2sc(CN3CCN(CC4CC4)CC3)cc2n1 [PI-3065] | 4.3 | 1.9
Cc1ccc([N+](=O)[O-])cc1S(=O)(=O)N(C)/N=C/c1cnc2ccc(Br)cn12 [PIK-75 HCl] | 0.59 | 0.36
CC(=O)Nc1nc(C)c(-c2ccc(Cl)c(S(=O)(=O)NCCO)c2)s1 [PIK-93] | 5.98 | 1.72
Nc1ncc(-c2ccnc(Nc3ccncc3)n2)c(CC2CC2)n1 [PIK-III] | > 10 | 5.9
Nc1ncnc2c1c(-c1cnc3[nH]ccc3c1)nn2C1CCCC1 [PP121] | 3.1 | 1.4
Nc1cc(C(F)F)c(-c2nc(N3C4CCC3COC4)nc(N3C4CCC3COC4)n2)cn1 [PQR620] | 5.1 | 2.22
COCC1(CO)C(=O)C2CCN1CC2 (stereo not drawn) [PRIMA-1Met] | 4.87 | 1.74
COc1cc(Br)c(Nc2nc(-c3c(C)nc4ncccn34)cs2)c(Br)c1 [PTC-209 HBr] | 4.46 | 2.6
CC(=O)O[C@H]1C(=O)[C@@]2(C)[C@H]([C@H](OC(=O)c3ccccc3)[C@]3(O)C[C@H](OC(=O)[C@H](O)[C@@H](NC(=O)c4ccccc4)c4ccccc4)C(C)=C1C3(C)C)[C@]1(OC(C)=O)CO[C@@H]1C[C@@H]2O [Paclitaxel] | 0.06 | 0.018
C/C(=C\c1csc(C)n1)[C@@H]1C[C@@H]2O[C@]2(C)CCC[C@H](C)[C@H](O)[C@@H](C)C(=O)C(C)(C)[C@@H](O)CC(=O)O1 [Patupilone (EPO906, Epothilone B)] | 0.05 | 0.02
Cc1ccc(Nc2nccc(N(C)c3ccc4c(C)n(C)nc4c3)n2)cc1S(N)(=O)=O [Pazopanib hydrochloride] | 3.08 | 1.7
N=C(N)NC(=N)NCCc1ccccc1 [Phenformin (hydrochloride)] | > 10 | 6.45
CS(=O)(=O)N1CCN(Cc2cc3nc(-c4cccc5[nH]ncc45)nc(N4CCOCC4)c3s2)CC1 [Pictilisib (GDC-0941)] | 1.19 | 0.26
COc1ccc(Cl)c(Nc2nc3ccccc3nc2NS(=O)(=O)c2cccc(NC(=O)C(C)(C)N)c2)c1 [Pilaralisib (XL147)] | > 10 | 6.72
NCCNc1ccc(NCCN)c2c1C(=O)c1ccncc1C2=O [Pixantrone (dimaleate)] | 6.31 | 3.36
CC(C)(C)c1[nH]cnc1/C=c1\[nH]c(=O)/c(=C/c2ccccc2)[nH]c1=O [Plinabulin (NPI-2358)] | 0.13 | 0.06
Cc1cc(Nc2ncc3c(n2)N(C)C(=O)N(c2cc(NC(=O)c4cccc(C(F)(F)F)c4)ccc2C)C3)n(C)n1 [Pluripotin (SC1)] | 0.42 | 0.24

Compound | estimated IC50 [1] [µM] | estimated IC50 [2] [µM]
Cc1ccc(C(=O)Nc2ccc(CN3CCN(C)CC3)c(C(F)(F)F)c2)cc1C#Cc1cnc2cccnn12 [Ponatinib] | 0.27 | 0.15
CCCCc1nc2cc(/C=C/C(=O)NO)ccc2n1CCN(CC)CC [Pracinostat (SB939)] | 0.377 | 0.24
COc1ccc(C[C@H](N)C(=O)N[C@H]2[C@@H](O)[C@H](n3cnc4c(N(C)C)ncnc43)O[C@@H]2CO)cc1 [Puromycin 2HCl] | 0.77 | 0.28
COc1ccc(F)c(F)c1C(=O)c1cnc(NC2CCN(S(C)(=O)=O)CC2)nc1N [R547] | 5.56 | 1.57
N[C@@H](Cc1ccccc1)C(=O)N1C/C(=C\c2ccc(Cl)c(Cl)c2)C(=O)/C(=C/c2ccc(Cl)c(Cl)c2)C1 [RA190] | 0.06 | 0.04
Nc1cc(F)ccc1NC(=O)/C=C/c1cnn(C/C=C/c2ccccc2)c1 [RGFP966] | 7.4 | 4.8
Cc1cc2c3c([n+](C)c4ccc(F)cc4c3c1)-c1cc(F)ccc1N2C [RHPS 4 methosulfate] | 9.15 | 0.47
O=C(c1ccc(OCCN2CCCCC2)cc1)c1c(-c2ccc(O)cc2)sc2cc(O)ccc12 [Raloxifene] | > 10 | 3.55
CNC(=O)c1cc(Oc2ccc(NC(=O)Nc3cc(C(C)(C)C)nn3-c3ccc4ncccc4c3)c(F)c2)ccn1 [Rebastinib (DCC-2036)] | 3.32 | 1.79
C[C@]12CC[C@H](O)C[C@H]1CC[C@@H]1[C@@H]2CC[C@]2(C)[C@@H](c3ccc(=O)oc3)C[C@H]3O[C@]132 [Resibufogenin] | 6.01 | 2.6
c1nc2c(NC3CCCCC3)nc(Nc3ccc(N4CCOCC4)cc3)nc2[nH]1 [Reversine] | 6.35 | 3
CO[C@H]1C[C@@H]2CC[C@@H](C)[C@@](O)(O2)C(=O)C(=O)N2CCCC[C@H]2C(=O)O[C@H]([C@H](C)C[C@@H]2CC[C@@H](OP(C)(C)=O)[C@H](OC)C2)CC(=O)[C@H](C)/C=C(\C)[C@@H](O)[C@@H](OC)C(=O)[C@H](C)C[C@H](C)/C=C/C=C/C=C/1C [Ridaforolimus (Deforolimus, MK-8669)] | > 10 | 0.002
O=C(NNc1nc2cc(F)ccc2n2cccc12)c1cnccn1 [SC144] | 0.826 ± 0.34 | 0.346 ± 0.071
Cc1c(Br)c(Br)c2c3c1nc(N1CCNCC1)n3CCC2 [SEL120 (SEL120-34?SEL120-34A)] | 4.68 | 2.2
CC(C)(C)C(=O)Nc1ccc2c(c1)C(=O)C(=O)c1ccccc1-2 [SF1670] | 0.68 | 0.12
COc1cc(Nc2ccnc3ccc(Br)cc23)cc(OC)c1OC [SGC-GAK-1] | 7.51 | 3.9
Cc1cc(Nc2ccc(NC(=O)c3ccc(Nc4ccnc5ccccc45)cc3)cc2)nc(N)n1 [SGI-1027] | 9.6 | 3.7
CN1CCC(CNc2ccc3ncc(-c4cccc(OC(F)(F)F)c4)n3n2)CC1 [SGI-1776 free base] | 8.9 | 3.5
Oc1ccc(Nc2nc(-c3ccc(Cl)cc3)cs2)cc1 [SKI II] | 7.7 | 3.5
